{"source": "PubChem BioAssay AID624417", "about": "(National Center for Advancing Translational Sciences (NCATS), 2012)", "note": "Out of some 410,000 compounds screened, about 6,400 (1.6%) were called active. Inconclusive results, whose numbers are uncertain, are shown with a selection of clear calls. The call rests on the fitted dose curve; in most records, active means well fitted inhibition curve with a large enough effect; inconclusive means small, poorly fitted or top-dose-only effect; inactive means no such curve, though single readings can be large or run the other way. No potency is given beside an inconclusive call; the fits are too rough. Peptide text beside a SMILES is read from it. * marks the point of attachment. Boc = CC(C)(C)OC(=O)*; Bn = c1ccc(C*)cc1; NHNH2 = NN*", "data": [{"target": "Glucagon-like peptide 1 receptor (Homo sapiens) (UniProt P43220)", "sequence (P43220 whole entry, looked up)": "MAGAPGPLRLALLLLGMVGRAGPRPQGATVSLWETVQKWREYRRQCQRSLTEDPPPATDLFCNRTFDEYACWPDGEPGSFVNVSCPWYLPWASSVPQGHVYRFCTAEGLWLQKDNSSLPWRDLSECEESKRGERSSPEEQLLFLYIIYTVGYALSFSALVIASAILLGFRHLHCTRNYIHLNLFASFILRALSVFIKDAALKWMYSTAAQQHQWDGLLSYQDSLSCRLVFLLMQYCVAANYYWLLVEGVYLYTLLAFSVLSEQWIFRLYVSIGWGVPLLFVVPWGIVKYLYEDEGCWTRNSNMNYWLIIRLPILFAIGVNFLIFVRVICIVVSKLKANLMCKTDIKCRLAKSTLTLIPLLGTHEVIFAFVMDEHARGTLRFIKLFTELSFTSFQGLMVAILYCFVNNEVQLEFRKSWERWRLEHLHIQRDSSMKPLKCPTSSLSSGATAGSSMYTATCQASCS", "assay": "qHTS of GLP-1 Receptor Inverse Agonists (Inhibition Mode); further: nearly all actives have a fitted effect of over 55% in size; further: potency means the concentration at half of the fitted maximal effect; tags describe the fitted curve by direction and shape; on activity change, negative = inhibition: on the % scale 0 is the no-effect control and ±100 the full control effect", "conditions": "HEK293 GLP-1R CRE-luciferase, luminescence, 24 h, GLP-1R form is constitutively active; activity change, negative = inhibition: at 38.3 µM (top of the series) unless noted", "in_short": "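Cells are plated, allowed 12 hours at 37 deg C, then treated with compounds for 24 hr before luciferase detection reagent is added and luminescence is read after 12 min at room temperature. The HEK293 line carries constitutively active GLP-1R with a cAMP-responsive reporter.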", "values": [{"smiles": "COc1ccccc1-c1nnc(SCC(=O)c2ccc(Cl)cc2)n1-c1ccccc1", "Potency": "inconclusive [inhibitor, partial curve, poor fit]"}, {"smiles": "Nc1nccc(/C=C/c2c(Cl)cccc2Cl)n1", "Potency": "inconclusive [inhibitor, single point]"}, {"smiles": "COc1ccc(NC(c2ccccc2)c2ccncc2)cc1", "note": "(configuration not stated)", "Potency": "inconclusive [inhibitor, single point]"}, {"smiles": "CC(C)N=C1SC(CC(=O)Nc2ccccc2)C(=O)N1C(C)C", "note": "(configuration not stated)", "Potency": "inconclusive [inhibitor, single point]"}, {"smiles": "CC(NC(=O)c1ccc2c(c1)CCN2S(=O)(=O)c1ccc(Cl)cc1)c1ccccc1", "note": "(configuration not stated)", "Potency": "inconclusive [inhibitor, partial curve, poor fit]"}, {"smiles": "Cc1ccc(NC(=S)Nc2ccc3cn[nH]c3c2)cc1C", "activity change, negative = inhibition": "inactive: 4.03%"}, {"smiles": "C[N+](C)(C)CCNC(=O)c1c[nH]c2ccccc12", "activity change, negative = inhibition": "inactive: 15.7%"}, {"smiles": "Cc1cc2nc(-c3ccc(Cl)cc3)c(Cc3cccc(Cl)c3)n2c(C)c1Br", "Potency": "inconclusive [inhibitor, partial curve, poor fit]"}, {"smiles": "CSc1cccc(NC(=O)CN2C(=O)COc3ccc(Cl)cc32)c1", "Potency": "inconclusive [inhibitor, single point]"}, {"smiles": "CCOc1ccc(C(=O)N2CCC(c3nc4ccccc4o3)CC2)cc1", "activity change, negative = inhibition": "inactive: -16.7%"}, {"smiles": "CCCCOc1ccc(C(=O)Nc2cccc(-c3nc4cccnc4s3)c2)cc1", "activity change, negative = inhibition": "inactive: -5.83%"}, {"smiles": "CCCn1c(/C=N/Nc2nc3ccccc3[nH]2)nc2ccccc21", "Potency": "inconclusive [inhibitor, single point]"}, {"smiles": "Cc1ccc(-c2nc3sc(CCNC(=O)c4ccc(Br)o4)c(C)n3n2)cc1", "Potency": "inconclusive [inhibitor, single point]"}, {"smiles": "COc1ccccc1CNC(=O)C(NS(=O)(=O)c1cccs1)C(C)C", "note": "(configuration not stated)", "activity change, negative = inhibition": "inactive: 14.6%"}, {"smiles": "CC(=O)/C(=N\\Nc1ccccc1)Oc1ccc([N+](=O)[O-])cc1", "Potency": "inconclusive [inhibitor, single point]"}, {"smiles": "Cc1cccc(OC(C)C(=O)N2CCCc3ccccc32)c1", "note": "(configuration not stated)", "Potency": "inconclusive [inhibitor, single point]"}, {"smiles": "CC(C)C(=O)Nc1cc(S(=O)(=O)Nc2ccc(Cl)cc2)ccc1Cl", "Potency": "inconclusive [inhibitor, single point]"}, {"smiles": "Cc1cccc(OCC(=O)N(Cc2cccs2)c2ccc(Cl)cc2)c1C", "Potency": "inconclusive [inhibitor, partial curve, poor fit]"}, {"smiles": "CC(C)CC(NC(=O)C(COCc1ccccc1)NC(=O)OC(C)(C)C)C(=O)NN", "note": "(configuration not stated) (Boc-Ser(Bn)-Leu-NHNH2; configuration not given here)", "Potency": "inconclusive [inhibitor, single point]"}, {"smiles": "Cc1ccc2[nH]c3c(=O)n(CC(=O)Nc4ccccc4N4CCN(C)CC4)ncc3c2c1", "Potency": "inconclusive [inhibitor, single point]"}, {"smiles": "O=C(N/N=C/c1c[nH]c2ccccc12)C1CC1c1ccccc1", "note": "(configuration not stated)", "Potency": "inconclusive [inhibitor, partial curve, poor fit]"}, {"smiles": "CCc1ccc(OCCOCC(O)CNC(C)CC)cc1", "note": "(configuration not stated)", "Potency": "inconclusive [inhibitor, single point]"}, {"smiles": "Cc1cccnc1NCc1ccc(O)c2ncccc12", "Potency": "active: 2.82 µM"}, {"smiles": "CCCCCS(=O)(=O)c1oc(-c2cccs2)nc1S(=O)(=O)c1ccc(C)cc1", "activity change, negative = inhibition": "inactive: 5.29%"}, {"smiles": "COc1ccc(NC(=O)CNC(=O)C23CC4CC(CC(C4)C2)C3)c(OC)c1", "activity change, negative = inhibition": "inactive: -25.4%"}, {"smiles": "CC1(C)CC(=O)C=C(c2ccccc2CO)C1=O", "activity change, negative = inhibition": "inactive: 7.06%"}, {"smiles": "CC(C)(C)OC(=O)N1CCC(c2c(C(=O)N3CCC(c4ccccc4)C3)cnn2-c2cccc(Cl)c2)CC1", "note": "(configuration not stated)", "activity change, negative = inhibition": "inactive: 11.7%"}, {"smiles": "O=C(NC(=S)Nc1ccccc1[N+](=O)[O-])c1cncc(Br)c1", "activity change, negative = inhibition": "inactive: -11.5%"}, {"smiles": "O=C(Nc1ccc([N+](=O)[O-])cc1)c1ccc(Cn2cc([N+](=O)[O-])cn2)cc1", "Potency": "inconclusive [inhibitor, full curve]"}, {"smiles": "COc1ccc(S(=O)(=O)Nc2ccc(C(F)(F)F)cc2)cc1OC", "Potency": "inconclusive [inhibitor, single point]"}, {"smiles": "Cc1cc(C(=O)Nc2ccc3ccccc3c2)oc1C", "Potency": "inconclusive [inhibitor, single point]"}, {"smiles": "COCc1c(C(=O)NCC(c2ccco2)N2CCCC2)oc2ccccc12", "note": "(configuration not stated)", "Potency": "inconclusive [inhibitor, partial curve, poor fit]"}, {"smiles": "O=C(NCCc1ccccc1)c1cc(S(=O)(=O)N2CCOCC2)ccc1F", "activity change, negative = inhibition": "inactive: -4.02%"}, {"smiles": "O=C1CSC(c2ccc(Cl)c(Cl)c2)N1c1nccs1", "note": "(configuration not stated)", "Potency": "inconclusive [inhibitor, single point]"}, {"smiles": "COc1ccc(N(C)C(=O)CCn2cnc3onc(-c4ccc(F)cc4)c3c2=O)c(OC)c1", "Potency": "inconclusive [inhibitor, single point]"}, {"smiles": "COc1ccc2c(CC(=O)NC3CCCc4ccccc43)coc2c1", "note": "(configuration not stated)", "Potency": "inconclusive [inhibitor, single point]"}, {"smiles": "O=C(NCC1CCN(Cc2cccc(Cl)c2)CC1)Nc1cc(Cl)ccc1Cl", "Potency": "inconclusive [inhibitor, single point]"}, {"smiles": "CCCCN(C)C(=O)Cn1ncc2c3ccccc3n(CCC)c2c1=O", "activity change, negative = inhibition": "inconclusive: -60.2% [inhibitor]"}, {"smiles": "COc1ccc(NC(=O)c2ccc(-c3ccccc3)cc2)cc1NS(=O)(=O)c1ccc(F)cc1", "Potency": "inconclusive [inhibitor, partial curve]"}, {"smiles": "COC(=O)c1c(-c2cccs2)csc1NC(=O)COc1ccc(C(C)(C)C)cc1", "Potency": "inconclusive [inhibitor, partial curve, poor fit]"}, {"smiles": "Cc1ccc(CNC(=O)Cn2ccc3cc(S(=O)(=O)N4CCCCCC4)ccc32)cc1", "Potency": "inconclusive [inhibitor, partial curve, poor fit]"}, {"smiles": "CC(=O)c1cccc(-n2nnnc2SCC(=O)Nc2cccc(NC(=O)c3ccco3)c2)c1", "Potency": "inconclusive [inhibitor, single point]"}]}]}
